Screen size: about 310,000 compounds; about 2,200 (0.71%) showed an effect of 50% or more. The effect is printed as a negative number. The list shows a part of the results.
These compounds were tested against human ether-à-go-go-related gene (hERG) potassium channel (human, UniProt Q12809) (assay: primary screen, population patch clamp on CHO cells stably expressing hERG).
human ether-à-go-go-related gene (hERG) potassium channel, sequence (Q12809 whole entry, looked up): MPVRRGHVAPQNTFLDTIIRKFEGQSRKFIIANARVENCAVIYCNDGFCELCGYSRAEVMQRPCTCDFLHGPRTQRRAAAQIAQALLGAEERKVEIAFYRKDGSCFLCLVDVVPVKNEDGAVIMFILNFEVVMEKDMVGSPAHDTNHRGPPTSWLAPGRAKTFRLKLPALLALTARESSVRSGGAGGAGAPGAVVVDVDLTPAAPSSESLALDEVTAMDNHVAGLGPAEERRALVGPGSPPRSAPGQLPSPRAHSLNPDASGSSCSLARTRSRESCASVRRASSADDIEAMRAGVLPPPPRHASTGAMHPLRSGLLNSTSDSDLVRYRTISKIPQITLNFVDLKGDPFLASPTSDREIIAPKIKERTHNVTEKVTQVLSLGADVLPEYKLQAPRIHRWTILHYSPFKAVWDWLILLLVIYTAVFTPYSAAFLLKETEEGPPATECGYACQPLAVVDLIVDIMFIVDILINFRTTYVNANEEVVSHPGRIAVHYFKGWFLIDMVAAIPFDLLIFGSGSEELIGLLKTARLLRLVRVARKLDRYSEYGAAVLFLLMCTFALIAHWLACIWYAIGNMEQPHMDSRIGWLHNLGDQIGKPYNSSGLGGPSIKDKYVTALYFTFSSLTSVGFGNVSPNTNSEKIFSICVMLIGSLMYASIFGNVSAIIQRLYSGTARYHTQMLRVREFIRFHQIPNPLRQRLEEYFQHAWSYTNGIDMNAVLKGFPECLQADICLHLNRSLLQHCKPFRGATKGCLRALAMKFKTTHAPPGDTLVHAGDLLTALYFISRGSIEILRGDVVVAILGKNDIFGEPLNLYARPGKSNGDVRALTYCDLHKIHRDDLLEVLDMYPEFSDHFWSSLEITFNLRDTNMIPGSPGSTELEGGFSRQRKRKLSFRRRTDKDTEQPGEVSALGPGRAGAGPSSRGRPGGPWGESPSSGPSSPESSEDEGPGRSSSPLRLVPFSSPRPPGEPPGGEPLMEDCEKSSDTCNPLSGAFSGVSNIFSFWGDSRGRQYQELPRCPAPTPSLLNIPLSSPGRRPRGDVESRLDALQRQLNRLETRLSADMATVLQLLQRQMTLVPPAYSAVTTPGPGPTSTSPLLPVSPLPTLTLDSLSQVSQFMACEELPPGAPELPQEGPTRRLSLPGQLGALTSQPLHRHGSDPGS

Row | SMILES | hERG current change (%, negative = inhibition) at 1uM [%]
1 | Cn1c(COc2ccccc2O)[n+](C)c2ccccc21.[Br-] | 13.9
2 | CC(C)COC(=O)COc1cc(Cl)c(Cl)cc1Cl | 11.7
3 | CCOC(=O)c1c(S(=O)(=O)NCC(=O)N2CCN(c3ccc(F)cc3)CC2)c(C)n(C)c1C | 14.5
4 | O=S(=O)(c1cccc2cccnc12)N1CCN(c2ccccc2)CC1 | 3.78
5 | C=CCn1c(=O)c(C(=O)NCCNCC)c(O)c2ccccc21.Cl | 11.9
6 | O=C(CN1CCN(c2ccccc2Cl)CC1)NC1CCCc2ccccc21.O=C(O)C(=O)O (stereo not drawn) | 8.01
7 | Cc1ccc(OCCC(=O)Nc2ccc(C)c(F)c2)cc1 | 14.3
8 | CC(=O)c1ccc(S(=O)(=O)N(C)CCCC(=O)N(C)Cc2c(F)cccc2Cl)cc1 | 9.09
9 | N/C(=N\OC(=O)c1ccccc1[N+](=O)[O-])c1ccccn1 | 13.7
10 | CC(O)CNc1nc2ccccc2n1CC(=O)NC12CC3CC(CC(C3)C1)C2 (stereo not drawn) | 8.58
11 | CC1CCC(NC(=O)c2ccc(N3CCCC3=O)cc2)CC1 (stereo not drawn) | 0.593
12 | CCC(=O)N(Cc1cc2cc(C)c(C)cc2[nH]c1=O)C1CCCCC1 | 11.1
13 | N/C(=N\OC(=O)c1cccs1)c1ccccc1 | -3.08
14 | CCC(=O)Nc1cc(-c2nc3ncccc3o2)ccc1Cl | 8.53
15 | CCOc1cc(Br)cc(/C=N/NC(=O)c2cccnc2)c1O | 1.54
16 | OCCN(Cc1ccccc1)Cc1ccc(C(F)(F)F)cc1 | 11.1
17 | Nc1nc(SCC(=O)Nc2cccc(Oc3ccccc3)c2)n[nH]1 | -0.41
18 | CCCCc1ccc(S(N)(=O)=O)cc1 | 14.9
19 | NC(=O)c1ccc(C(F)(F)F)n(Cc2ccc(F)c(F)c2)c1=O | 29.2
20 | COc1cccc(CNC(=O)CN2C(=O)COc3ccc(S(=O)(=O)N4CCC(C)CC4)cc32)c1 | 15.4
21 | O=C1c2ccccc2C(=O)N1OCc1ccccc1 | 9.5

Row | SMILES | hERG current change (%, negative = inhibition) at 1uM [%]
22 | O=C(CCC(=O)N1CCOc2ccc(Cl)cc21)NCCCN1CCN(Cc2ccccc2)CC1 | -63.7
23 | CN1CCN(C(=O)c2cc3c(ccc4ccccc43)oc2=O)CC1 | 12.8
24 | O=C(O)CCC(=O)N1CCN(S(=O)(=O)c2ccc3ccccc3c2)CC1 | 22.5
25 | O=C(NCc1ccco1)C(c1cccnc1)N(C(=O)Cn1nnc2ccccc21)c1ccccc1 (stereo not drawn) | 5.23
26 | CC(NCc1cc(Br)ccc1OCC(=O)NCc1ccccc1)c1ccccc1.Cl (stereo not drawn) | 7.24
27 | CCOC(=O)c1c(C)[nH]c(C)c1C(=O)CSc1nc2ccccc2c(=O)n1-c1ccc(F)cc1 | 10.7
28 | CC(C)OC(=O)CSc1nnc(-c2ccncc2)n1N | 11.3
29 | COc1ccc(NC(=O)Nc2cc(NC(=O)Nc3ccc(OC)cc3)c(C)nc2C)cc1 | 12
30 | CCC(C)(C)n1nnnc1C(c1cc2ccc(OC)cc2[nH]c1=O)N1CCc2ccccc2C1 (stereo not drawn) | -2.06
31 | CCN(c1ccccc1)S(=O)(=O)c1ccc(C(=O)NCC2(N(C)C)CCCCC2)cc1 | -2.37
32 | CCn1c(=O)n(Cc2ccco2)c(=N)c2c3c(sc21)COC(C)(C)C3 | -12.2
33 | O=C(NCCS(=O)(=O)NCCc1ccccc1)c1ccccc1 | 0.275
34 | C(=N\N1CCN(Cc2cccc3ccccc23)CC1)/c1cccs1 | 4.6
35 | Cn1c2ccccc2c2nnc(SCC(=O)NCc3ccoc3)nc21 | 10.4
36 | C#Cc1ccc([C@@H]2C=C(C(=O)Nc3ccccc3)O[C@H](OCC)[C@H]2CCCO)cc1 | -2.28
37 | CCCCCCSc1ccc([C@@H]2[C@H]3C(=O)N(C)C(=O)[C@H]3[C@]3(C(=O)OC)CCCCN23)cc1.O=C(O)C(F)(F)F | 1.84
38 | COc1ccccc1NC(=O)N(Cc1ccccc1)c1ccccn1 | 17
39 | CN(C)c1ccc(C(=O)OCC(=O)Nc2ccc(S(N)(=O)=O)cc2)cc1 | 14.2
40 | COc1ccccc1NC(=O)C(=O)NNC(=O)COc1ccc2ccccc2c1 | 14
41 | COC(=O)c1cc(-c2c(-c3ccc4c(c3)OCO4)noc2-c2ccsc2)cc([N+](=O)[O-])c1 | 9.81
42 | O=C1CC(c2cccs2)CC(O)=C1C=NCCN1CCNCC1 (stereo not drawn) | -0.684

Row | SMILES | hERG current change (%, negative = inhibition) at 1uM [%]
43 | COC(=O)Cn1c(=O)c2c(nc(Br)n2CC(=O)OC)n(C)c1=O | 6.24
44 | CCC(C)[C@H](NS(=O)(=O)c1ccc(C)cc1)C(=O)N1CCC(C(=O)N2CCC(C(N)=O)CC2)CC1 (stereo partly drawn) | 12
45 | COc1cccc(NC(=O)C2C3C=CC4(O3)C2C(=O)N(CCCN2CCCCC2)C4C(=O)NC2CCCCC2)c1 (stereo not drawn) | 8.34
46 | C#CCOCCOCCOCCNc1nc(N2CCN(C(=O)[C@H](Cc3cc4ccccc4[nH]3)n3cc([C@@H](N)CC(C)C)nn3)CC2)nc(N2CCN(C(=O)[C@H](Cc3cc4ccccc4[nH]3)n3cc([C@@H](N)CC(C)C)nn3)CC2)n1.Cl | 14.7
47 | O=C(NS(=O)(=O)Oc1cccc(F)c1)OC[C@@H]1CCCN2CCCCC12 (stereo partly drawn) | 10.8
48 | Nc1ccc(NC(=O)CCN2CCOCC2)cc1 | 10.3
49 | COc1ccc(C(=O)O/N=C(/c2ccccc2)c2ccncc2)cc1 | 2.76
50 | Cc1ccc2c(c1)c1c(n2CC(O)CNC(CO)(CO)CO)CCCC1 (stereo not drawn) | 9.51
51 | Cc1ccc(OCC(=O)N/N=C\c2cccn2C)c([N+](=O)[O-])c1 | 11
52 | O=C(c1ccc([N+](=O)[O-])cc1)N(Cc1ccccc1)c1ccccn1 | 8.64
53 | O=C(Nc1nccs1)C1CCN(S(=O)(=O)c2c(Cl)cccc2Cl)CC1 | 12.1
54 | COc1ccc(C(=O)NCC(=O)N2CCCC(C)C2)cc1OC (stereo not drawn) | 4.01
55 | O=C(NCc1ccco1)c1ccccc1Br | 9.86
56 | Cc1nc([N+](=O)[O-])c(Br)n1CC(=O)c1ccc(Cl)cc1 | -0.392
57 | CC(C)(C)C(=O)NC(=S)Nc1cc(C(F)(F)F)ccc1N1CCOCC1 | 10.6
58 | COC(=O)N/N=C/c1cc(Cl)c(OCc2ccccc2F)c(OC)c1 | 4.61
59 | CC1CCC(NC(=O)c2cc(S(=O)(=O)N3CCCCC3)c[nH]2)CC1 (stereo not drawn) | 6.23
60 | O=C(O)C1C(C(=O)Nc2ccc(Cl)cc2)C2C=CC1C21CC1 (stereo not drawn) | 13.5
61 | Cc1cc(NS(=O)(=O)c2ccc(NC(=O)c3cc4cc(Br)ccc4oc3=O)cc2)no1 | 6.01
62 | O=C(c1cc(-c2ccc(Cl)cc2)n(-c2ccc(Cl)cc2Cl)n1)N1CCOCC1 | -40.7
63 | CC(C)C(=O)Nc1ccccc1Cc1ccccc1 | 7.22

Row | SMILES | hERG current change (%, negative = inhibition) at 1uM [%]
64 | COc1ccc(N(Cc2cc(=O)[nH]c3ccccc23)C(=O)CCl)cc1 | 14.5
65 | Cc1ccn2c(-c3n[nH]c(=S)n3Cc3ccccc3)c(C)nc2c1 | 1.74
66 | NS(=O)(=O)c1ccc(N=Nc2ccc(=O)[nH]c2O)cc1 | 18.2
67 | Cc1ccc(S(=O)(=O)Nc2ccc3c(c2)CCC3)cc1C | 0.0445
68 | CCN(CC)S(=O)(=O)c1ccc(C(=O)NCc2ccc3[nH]c4c(c3c2)CCCC4)cc1 | 16.4
69 | Cn1nc2c3ccccc3n(Cc3ccc(F)cc3)c2nc1=S | 13.2
70 | COc1cc(OC)c(S(=O)(=O)NC(C)C)cc1C(=O)O | 6.73
71 | C=CCn1cc(C(=O)NCCCOC)c(=O)c2cc(S(=O)(=O)N3CCC(C)CC3)ccc21 | -1.87
72 | CC1(C)CC(=O)C(Sc2nnc(-c3ccc(NS(C)(=O)=O)cc3)n2Cc2ccco2)C(=O)C1 | 16.5
73 | Cc1ccc(C(C)C)cc1S(=O)(=O)NCc1cccnc1 | 16.6
74 | Cc1ccc2cc(CN(CC3CCCO3)C(=O)NC3CCCCC3)c(=O)[nH]c2c1C (stereo not drawn) | 2.18
75 | O=C(CN1CCCCCC1=O)N1CCN(S(=O)(=O)c2cccs2)CC1 | 15.7
76 | Cc1ccc(S(=O)(=O)N2CCC(=O)N(C(COCc3ccc(Cl)cc3)Cc3ccccc3)CC2)cc1 (stereo not drawn) | 7.88
77 | COc1cccc(C2CC(c3cccs3)=NN2C(=O)CSc2nc3ccccc3s2)c1OC (stereo not drawn) | 10.9
78 | O=C1NC(=O)N(Cc2ccc(F)cc2)C(=O)/C1=C\c1ccc(N2CCCC2)cc1 | 13.7
79 | Cc1nc2ccccc2cc1OCc1ccc(Cl)cc1 | 15.1
80 | O=C(CSc1ncnc2nc[nH]c12)Nc1nnc(SCc2ccc(Cl)c(Cl)c2)s1 | 11.2
81 | Cc1ccc(C)c(NC(=O)Cn2cnc3c(oc4ccccc43)c2=O)c1 | 9.76
82 | COc1ccc(NC(=O)c2cc(OC)c(OC)cc2OC)c(S(=O)(=O)N2CCOCC2)c1 | 3.64
83 | CN(C(=O)CSc1nncn1-c1ccccc1)C1CCS(=O)(=O)C1 (stereo not drawn) | 6.76
84 | CC(=O)N(CC(C)(C)CC=C(C)C)c1ccccc1 | 13
